± gives the standard deviation of the averaged measurements. Over roughly 33,000 sequences, “E-score (dimensionless, -0.5 to 0.5)” has its median near -0.046; the highest 2% begin near 0.36. The list shows a part of the results.
test system: T1, SpTbr T-box DNA-binding domain (GST fusion); test: PBM E-score of 8-mer (E-score (dimensionless, -0.5 to 0.5)); Tbr is Tbrain of the sea star Patiria miniata (Pm) or the sea urchin Strongylocentrotus purpuratus (Sp); higher = stronger binding preference; most listed sequences are background and not binding sites; conditions: the construct has about 5 more residues each side
T1 sequence: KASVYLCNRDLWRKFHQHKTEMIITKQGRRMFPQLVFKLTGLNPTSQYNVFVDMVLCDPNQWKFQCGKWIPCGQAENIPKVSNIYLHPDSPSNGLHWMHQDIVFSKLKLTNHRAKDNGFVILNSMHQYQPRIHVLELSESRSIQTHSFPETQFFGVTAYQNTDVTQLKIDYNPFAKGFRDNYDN
Procedure, shortened: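 Primer extension turned Universal Agilent oligonucleotide arrays double-stranded. They were incubated with 200 nM protein in PBS (pH 7.5); the protein was a GST-fused Tbr T-box DNA-binding domain expressed in BL21 E. coli at 20 °C and purified on glutathione. Every ungapped 8-mer was scored from the scanned, quantified probe intensities, and the Universal PBM Analysis Suite gave each an enrichment E-score averaged over duplicate arrays.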

Sequence | PBM E-score of 8-mer
TATTTCGA | 0.00196 ± 0.12
AACCAACG | 0.05 ± 0.0024
AGCAGCGC | -0.0329 ± 0.041
GGTGAGTA | 0.176 ± 0.021
AGTAGCAA | 0.0181 ± 0.052
CAAAACCC | 0.0107 ± 0.019
CGCGCCAC | 0.28 ± 0.022
AGACCCAA | -0.135 ± 0.051
CCAGCGTC | 0.0784 ± 0.048
CACTCATC | 0.139 ± 0.041
GTGGAAAA | 0.125 ± 0.036
GTGCGAAA | 0.4765 ± 0.0018
AGACCACG | -0.123 ± 0.023
AAACAAGA | -0.144 ± 0.088
AGGACTTC | -0.0985 ± 0.016
CATCTTCG | 0.0284 ± 0.034
GTCACTGA | 0.114 ± 0.05
ATTCTGAG | -0.206 ± 0.048
TATTGTCA | 0.259 ± 0.0048
ATTTCACA | 0.4303 ± 0.0022
ACATGCCT | -0.149 ± 0.028
ACCGCCGA | -0.0679 ± 0.082

Sequence | PBM E-score of 8-mer
CTTACAAA | -0.157 ± 0.036
GACAATGC | 0.1077 ± 0.00013
GAGATCCA | 0.00312 ± 0.022
CGCGATCC | 0.25 ± 0.058
ACACGAAA | -0.0562 ± 0.022
ACGGTGCG | 0.298 ± 0.024
GTCAATTA | 0.0683 ± 0.081
TAGTTATA | -0.132 ± 0.028
GGCAACAA | 0.13 ± 0.019
AGAGATTC | -0.0558 ± 0.025
AATTCCGA | -0.0591 ± 0.017
AGATCTGG | -0.115 ± 0.13
TACCGAAA | -0.282 ± 0.051
TACACAGA | -0.191 ± 0.08
CCTTACAC | 0.3668 ± 0.0022
AACAAGCG | 0.124 ± 0.022
ATGCTTAG | -0.0663 ± 0.052
AAGAAGCT | -0.135 ± 0.037
CTTAGCGA | 0.161 ± 0.014
GCGTTGCC | 0.224 ± 0.024
GACCATTA | -0.0128 ± 0.047
ACTTACAC | 0.251 ± 0.075

Sequence | PBM E-score of 8-mer
AGCGCCTG | 0.151 ± 0.0084
CAATGTCG | 0.143 ± 0.0028
AATGAGTC | -0.0246 ± 0.0053
GGACGCCA | 0.00509 ± 0.055
GCCGACCA | -0.0701 ± 0.06
CATAGGGG | -0.19 ± 0.021
CGAGCCGC | 0.131 ± 0.09
ATCCTAAC | 0.0464 ± 0.0035
AGGTAAGG | -0.0391 ± 0.017
AGACTACT | -0.196 ± 0.027
ACAAATGA | -0.115 ± 0.033
GATAGGCA | -0.0863 ± 0.091
CAAACTCC | -0.00739 ± 0.073
TGAGCTAA | -0.0118 ± 0.003
AGAGACAA | -0.0942 ± 0.008
AACATGGT | 0.0967 ± 0.028
GGAGCTAA | -0.165 ± 0.013
CGCGTGAA | 0.4208 ± 0.0018
ATGGTCAG | -0.188 ± 0.03
GAACTGGA | -0.101 ± 0.015
TATGAAAA | -0.14498 ± 0.00011
AGGATTAA | -0.0396 ± 0.046

Sequence | PBM E-score of 8-mer
AATGAAGC | -0.23 ± 0.11
CCCTGTCC | -0.0439 ± 0.043
GACTTGAC | 0.077 ± 0.081
CCGTCTTA | -0.123 ± 0.028
GCGGCAAA | 0.1484 ± 0.0012
AATCCCCC | -0.339 ± 0.097
ATGTAATC | -0.0831 ± 0.014
AATCGCTG | -0.0659 ± 0.031
CGAATGTA | -0.0892 ± 0.04
CAGCAAGA | -0.0629 ± 0.045
CGCCATTA | 0.0699 ± 0.017
CTGCAAAC | -0.0237 ± 0.035
CTCCTAAA | -0.231 ± 0.055
CAATATTA | -0.2 ± 0.027
TAGGAAAA | -0.211 ± 0.0062
ACCGCTTA | -0.151 ± 0.0038
AAGCTCGG | -0.0679 ± 0.069
AGAGATTG | 0.00583 ± 0.025
AGAGCTGA | -0.108 ± 0.023
ATTGTTCC | -0.076 ± 0.0045

Reference: the supplement of paper PMC4166925
